This passage reports AUC and IC50 results from the supplement of paper PMC4967469.

A lower IC50 marks a more sensitive line; a limit (>, <) means that the fit lies beyond the doses tested. The AUC spans the tested range (256-fold, ending at the top dose) of the same fit: 1 means no effect, lower means more sensitive. A top dose marked as inferred is not printed in the source and was worked back from the curve model. Bounds are passed on as bounds.

Compound in the experiment: Cn1cc(C2=C(c3cn(C4CCN(Cc5ccccn5)CC4)c4ccccc34)C(=O)NC2=O)c2ccccc21 [LY317615]
Briefly: Viability of human cancer cell lines after 72 h of drug (GDSC screen). The conditions noted are these: top dose inferred. The procedure: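 Human cancer cell lines in 384-well plates, medium with 10% serum, drug for 72 h over a 256-fold dose range (nine 2-fold or five 4-fold steps up to the top dose). Adherent lines were fixed and stained with the nucleic acid dye Syto60, suspension lines read with resazurin; signal relative to control wells, capped at 0 and 100%. One two-parameter sigmoid per drug and line, fitted in a mixed model over all curves with the slope shared within a line.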
As a reminder, the IC50 is the concentration needed to halve the response being measured. Regarding “TE-4 (oesophagus, adherent, top dose 20 µM)”, the AUC was determined as 0.92 and the IC50 was above 20 µM.
On the same counts, the results for “MFH-ino (soft tissue, adherent, top dose 20 µM)” are 0.977 and above 20 µM.
The corresponding values for “PANC-10-05 (pancreas, adherent, top dose 20 µM)” are 0.698 and 5.32 µM.
The corresponding values for “NCI-H1836 (small cell lung carcinoma, suspension, top dose 20 µM)” are 0.961 and above 20 µM.
As for “MOLP-8 (myeloma, suspension, top dose 20 µM)”, the AUC worked out at 0.668 and the IC50 worked out at 3.6 µM.
On the same counts, the results for “NCI-H1944 (lung adenocarcinoma, adherent, top dose 20 µM)” are 0.404 and 0.668 µM.
On the same counts, the results for “CAL-62 (thyroid, adherent, top dose 20 µM)” are 0.982 and above 20 µM.
On the same counts, the results for “NCI-H1437 (lung adenocarcinoma, adherent, top dose 20 µM)” are 0.499 and 1.24 µM.
For “CCK-81 (large intestine, adherent, top dose 20 µM)”, the AUC was 0.42 and the IC50 was found to be 0.764 µM.
In the case of “GMS-10 (glioma, adherent, top dose 20 µM)”, the AUC turned out to be 0.987 and the IC50 was above 20 µM.
The corresponding values for “LN-405 (glioma, adherent, top dose 20 µM)” are 0.92 and above 20 µM.
On the same counts, the results for “SK-MEL-5 (melanoma, adherent, top dose 20 µM)” are 0.923 and above 20 µM.
On the same counts, the results for “CHP-134 (neuroblastoma, suspension, top dose 20 µM)” are 0.957 and above 20 µM.
For “P30-OHK (lymphoblastic leukaemia, suspension, top dose 20 µM)”, the AUC stood at 0.872 and the IC50 came to 13.8 µM.
On to “Capan-2 (pancreas, adherent, top dose 20 µM)”, for which the AUC amounted to 0.849 and the IC50 is above 20 µM.
Consider “SW948 (large intestine, adherent, top dose 20 µM)”, for which the AUC stood at 0.955 and the IC50 is above 20 µM.
On to “EPLC-272H (lung squamous cell carcinoma, adherent, top dose 20 µM)”, for which the AUC amounted to 0.519 and the IC50 was determined as 1.42 µM.
For the cell line “OVK-18 (ovary, adherent, top dose 20 µM)”, the AUC turned out to be 0.963 and the 50% inhibitory concentration (IC50) was above 20 µM.
On the same counts, the results for “NCI-SNU-5 (stomach, suspension, top dose 20 µM)” are 0.989 and above 20 µM.
With “SK-CO-1 (large intestine, adherent, top dose 20 µM)”, the AUC came out at 0.954 and the IC50 was above 20 µM.
On the same counts, the results for “HCC1500 (breast, adherent, top dose 10.24 µM)” are 0.923 and above 10.2 µM.
The corresponding values for “ALL-PO (lymphoblastic leukaemia, suspension, top dose 20 µM)” are 0.417 and 0.729 µM.
As to “BC-1 (B-cell lymphoma, suspension, top dose 20 µM)”, the AUC was determined as 0.836 and the 50% inhibitory concentration (IC50) amounted to 10.6 µM.
On the same counts, the results for “KASUMI-1 (acute myeloid leukaemia, suspension, top dose 20 µM)” are 0.493 and 1.2 µM.
The corresponding values for “EGI-1 (biliary tract, adherent, top dose 20 µM)” are 0.975 and above 20 µM.
For the cell line “MFE-296 (endometrium, adherent, top dose 20 µM)”, the AUC worked out at 0.983 and the concentration for half-maximal inhibition (IC50) was above 20 µM.
Take “HSC-4 (head and neck, adherent, top dose 20 µM)”: the AUC was determined as 0.976 and the half-inhibitory concentration (IC50) was above 20 µM.
